The experiment has as its system Tomato Bacterial Leaf Spot. Description: whole plant or invertebrate. Conditions: for pest or weed control at 500 µg/g: Solanum lycopersicum, read-out: Tomato Bacterial Leaf Spot Average inhibition rate (%). The source says:
Testing Materials: Strains: Tomato Bacterial Leaf Spot
(Pseudomonassyringaepv. tomato (Okabe) Young, Dye & Wilkie), Cucumber Angular Leaf Spot, Rice Sheath Blight Disease (Rhizoctonia solani), Corynespora Leaf Spot of Cucumber (Corynespora cassiicola), Downy Mildew of Cucumber (Cucumber Downy Mildew).
Inoculation of the suspension of spore by root irrigation is used for fusarium wilt of cucumber. Strip inoculation is used for Rice Sheath Blight Disease and phytophthora blight of pepper, in which the liquor was sprayed and after 2 hours, inoculation of strips was performed followed by culturing at humidity.

The values that follow come from US8865724B2, “Preparation of 2-methyl-4-amino-5(substituted-1H-1,2,3-triazolyl)methylpyrimidine derivatives and microbicidal activity thereof” (Central China Normal University, priority 2011, dated 2014).

Regarding `Cc1ncc(Cn2cc(COC(=O)c3ccc([N+](=O)[O-])cc3)nn2)c(N)n1` [Compound 32], the pest or weed control at 500 µg/g worked out at 70%.

For the molecule `Cc1ncc(Cn2cc(COC(=O)c3ccc(Cl)cc3)nn2)c(N)n1` [Compound 33], the pest or weed control at 500 µg/g came out at 70%.

Consider `Cc1ncc(Cn2cc(COC(=O)c3ccc(F)cc3)nn2)c(N)n1` [Compound 34], for which the pest or weed control at 500 µg/g was 60%.

On to `Cc1ncc(Cn2cc(COC(=O)c3cc([N+](=O)[O-])cc([N+](=O)[O-])c3)nn2)c(N)n1` [Compound 35], for which the pest or weed control at 500 µg/g is 80%.

Take `Cc1ncc(Cn2cc(COC(=O)c3ccccc3Cl)nn2)c(N)n1` [Compound 36]: the pest or weed control at 500 µg/g was 80%.

Take `Cc1ncc(Cn2cc(COC(=O)c3ccccc3F)nn2)c(N)n1` [Compound 37]: the pest or weed control at 500 µg/g stood at 70%.

Consider `Cc1ccc(C(=O)OCc2cn(Cc3cnc(C)nc3N)nn2)cc1` [Compound 38], for which the pest or weed control at 500 µg/g was found to be 95%.

`Cc1ncc(Cn2cc(COC(=O)c3cccc(Cl)c3)nn2)c(N)n1` [Compound 39]: the pest or weed control at 500 µg/g worked out at 80%.

Take Zhongshengmycin [reference compound]: the “Tomato Bacterial Leaf Spot Average inhibition rate (%)” value (testing concentration of 500 μg/g) was determined as 60%.
